The target in assay [1] is T1, Callithrix jacchus (common marmoset) Ntcp G158S (Callithrix jacchus) (UniProt F7HA36).
T1 sequence: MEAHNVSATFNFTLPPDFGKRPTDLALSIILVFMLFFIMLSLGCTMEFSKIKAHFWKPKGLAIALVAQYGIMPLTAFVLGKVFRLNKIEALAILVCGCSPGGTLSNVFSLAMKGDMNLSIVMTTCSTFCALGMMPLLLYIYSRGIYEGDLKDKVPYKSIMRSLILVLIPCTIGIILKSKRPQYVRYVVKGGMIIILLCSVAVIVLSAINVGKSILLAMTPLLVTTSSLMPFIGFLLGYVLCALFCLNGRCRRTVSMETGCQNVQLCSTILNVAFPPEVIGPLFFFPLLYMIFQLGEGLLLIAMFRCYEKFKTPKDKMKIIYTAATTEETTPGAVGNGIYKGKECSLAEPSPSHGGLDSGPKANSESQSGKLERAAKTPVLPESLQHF
As to the kind of experiment: binding of fluorescently labelled peptide to transfected cells, plate fluorescence scan; 10 nM myr-preS1-Al633 peptide in DMEM, 20 min, 37°C, on NTCP/Ntcp-transfected HEK293 cells in 24-well plates; washed with DMEM 2 min at 37°C; plates scanned at room temperature (Typhoon FLA 7000, 633 nm), total signal per area; only the binder purified.

Assay [2] concerns the target T2, human Na+/taurocholate co-transporting polypeptide (NTCP), wild type (human) (UniProt Q14973).
T2 sequence: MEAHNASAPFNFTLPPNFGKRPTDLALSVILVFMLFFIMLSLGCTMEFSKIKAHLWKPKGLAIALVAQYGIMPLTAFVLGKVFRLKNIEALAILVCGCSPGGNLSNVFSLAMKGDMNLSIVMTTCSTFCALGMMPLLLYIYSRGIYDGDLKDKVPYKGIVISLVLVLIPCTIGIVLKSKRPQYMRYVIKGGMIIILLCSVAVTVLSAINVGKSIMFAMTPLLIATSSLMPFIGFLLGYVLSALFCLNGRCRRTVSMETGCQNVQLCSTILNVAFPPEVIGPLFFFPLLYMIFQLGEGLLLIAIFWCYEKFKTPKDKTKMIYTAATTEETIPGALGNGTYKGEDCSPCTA
The description is as above.

In paper PMC6005513 one finds binding data, which are given here for 1 substance.

These are yes or no findings as the source states them, for the method shown. Some entries that bind do so weakly or less than the wild type.

For “HBV myr-preS1-Al633-peptide (from UniProt P03138 2-48)”, the binding entry in assay [1] and in assay [2] was “binds” in each case.
